Results from paper PMC12345631.
Positions count from the first letter of the chain named. Results are given in words; binding and its absence hold for the method and conditions named. Binding seen in cells or lysates may run through a third protein. Some binding calls cover weakened binding; strength is not graded here. Where a sequence is shown, tags or fusion partners need not be part of it.

How the values were obtained:
[1] = biological target: T1, Pbp1-Flag (S. cerevisiae) (UniProt P53297); assay: co-IP; anti-Flag co-IP as above; washed IP samples incubated with RNase If for 15 min at 37°C; cells from YPL cultures in log phase
T1 sequence: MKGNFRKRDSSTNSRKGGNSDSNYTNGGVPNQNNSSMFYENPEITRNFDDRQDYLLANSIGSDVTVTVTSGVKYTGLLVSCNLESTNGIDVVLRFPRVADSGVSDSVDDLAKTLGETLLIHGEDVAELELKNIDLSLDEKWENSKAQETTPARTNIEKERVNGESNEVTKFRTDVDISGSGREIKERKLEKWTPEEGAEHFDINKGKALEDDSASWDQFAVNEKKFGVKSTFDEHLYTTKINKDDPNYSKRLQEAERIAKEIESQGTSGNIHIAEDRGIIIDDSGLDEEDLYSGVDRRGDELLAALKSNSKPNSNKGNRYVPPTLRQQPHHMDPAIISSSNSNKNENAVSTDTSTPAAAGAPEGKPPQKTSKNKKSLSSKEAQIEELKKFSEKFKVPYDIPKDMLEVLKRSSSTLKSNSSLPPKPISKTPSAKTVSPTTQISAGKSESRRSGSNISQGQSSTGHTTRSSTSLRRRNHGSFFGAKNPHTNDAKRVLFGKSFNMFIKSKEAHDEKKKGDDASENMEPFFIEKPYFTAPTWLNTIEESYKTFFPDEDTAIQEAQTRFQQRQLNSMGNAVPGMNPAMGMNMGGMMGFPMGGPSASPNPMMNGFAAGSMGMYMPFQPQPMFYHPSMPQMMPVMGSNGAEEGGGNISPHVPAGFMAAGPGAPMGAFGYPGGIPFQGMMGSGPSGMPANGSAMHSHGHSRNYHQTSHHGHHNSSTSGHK

[2] = biological target: T2, Pbp1-4A (Flag-tagged) (S. cerevisiae) (UniProt P53297); assay: co-IP; anti-Flag (M2) on Dynabeads Protein G, 1–2 h at 4°C; lysis in 50 mM HEPES pH 7.5, 150 mM NaCl, 1 mM EDTA, NP-40; washes with 0.2% NP-40; blot for HA; cells in YPD, YPL, SD or SL medium; wild-type or mkt1∆ background; CEN.PK and S288C
T2 sequence: T1 sequence with F500A, N501A, M502A, F503A

[3] = biological target: T3, Pbp1Δ299-570 (Flag-tagged) (S. cerevisiae) (UniProt P53297); assay: as above
T3 sequence: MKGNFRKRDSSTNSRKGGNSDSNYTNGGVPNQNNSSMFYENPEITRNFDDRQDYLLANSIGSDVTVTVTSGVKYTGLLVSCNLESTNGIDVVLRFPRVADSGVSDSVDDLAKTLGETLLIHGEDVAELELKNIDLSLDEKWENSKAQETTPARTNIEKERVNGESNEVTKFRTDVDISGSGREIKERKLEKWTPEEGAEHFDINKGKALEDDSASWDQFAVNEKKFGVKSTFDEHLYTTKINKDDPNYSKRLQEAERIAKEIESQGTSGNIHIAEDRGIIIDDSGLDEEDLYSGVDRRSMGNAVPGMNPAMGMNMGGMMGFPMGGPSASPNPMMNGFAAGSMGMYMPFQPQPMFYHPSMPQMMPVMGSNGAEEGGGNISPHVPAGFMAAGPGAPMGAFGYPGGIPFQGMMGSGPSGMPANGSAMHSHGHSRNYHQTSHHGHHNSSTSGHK

[4] = biological target: T4, Pbp1Δ491-570 (Flag-tagged) (S. cerevisiae) (UniProt P53297); assay: as above
T4 sequence: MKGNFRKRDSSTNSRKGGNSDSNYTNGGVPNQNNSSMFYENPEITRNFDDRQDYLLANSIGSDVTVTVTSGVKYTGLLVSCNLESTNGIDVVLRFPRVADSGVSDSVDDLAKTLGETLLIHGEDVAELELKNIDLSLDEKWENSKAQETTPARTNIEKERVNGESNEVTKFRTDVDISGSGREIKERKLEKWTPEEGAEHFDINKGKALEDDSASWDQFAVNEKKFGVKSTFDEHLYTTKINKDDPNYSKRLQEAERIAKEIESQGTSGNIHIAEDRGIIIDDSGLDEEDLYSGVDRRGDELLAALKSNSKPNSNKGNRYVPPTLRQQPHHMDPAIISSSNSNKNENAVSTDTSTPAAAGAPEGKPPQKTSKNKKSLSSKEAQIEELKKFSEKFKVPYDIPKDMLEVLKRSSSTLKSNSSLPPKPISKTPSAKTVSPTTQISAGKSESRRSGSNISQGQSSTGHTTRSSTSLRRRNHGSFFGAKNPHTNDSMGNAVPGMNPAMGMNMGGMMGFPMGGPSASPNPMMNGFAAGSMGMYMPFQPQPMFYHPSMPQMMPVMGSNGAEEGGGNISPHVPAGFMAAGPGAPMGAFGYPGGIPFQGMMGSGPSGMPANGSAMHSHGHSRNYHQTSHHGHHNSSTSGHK

binding [1]: binds | binding [2]: no binding | binding [3]: no binding | binding [4]: no binding
B1: Mkt1-HA (protein, UniProt P40850 1-830)
chain: MAIKSLESFLFERGLVGSYAIEALNNCTLGIDVNHYVSRLLTNKREQYLDAIGGFPTSLKMYLESDLKIFKDFNITPIFVFNGGLTYNQLEASGHFTAASASASISSTTTSSSGTNATTRSNTESVLLQRSRGWTQWNNLISSNQNSYIDQPIQPQEPFRHNTTIDSKAYQNDLIAYFIEHGYMYQVAPYSSWFQLAYLLNSAYIDAIYGPTDCLMLDCVDRFILGMEFPNKEFRFIDRSRVMKDLGCTHEEFIDIAMAVGNDLQPTTLPPLQIYPVPQLFDIALEMVLNTGTNFYAYQLSTTLQNDSKENIQNYQRGISALRYMPVLKDTGKVELFVQEIVVSEEDSEKNNKDGKKSNLSSPSSASSSASPATTVTKNASEKLTYEKSSTKEVRKPRDIPNDVHDFIGQMLPHEYYFYRSIGLVTGKLFDAIVTGVYPEEPPLGGGSSTSYRKLVSKSVEIFKNKEINLLTQPINRYYQIKQIKQVKWYAANEPTTLTNRMSPSMFETINHLIVKTETSDEKEFSISEFITTINGSSNMAKDFISEKVIFPNSVPIESKLNSPFNLLSTNFLRLLVLLEFFTFDFKEKLLEPTRWGEVFLKLNELNIDSKYHESVIIFLVFLKCDVLKLDEEVQPPAPSALSQATLRSYPEESLYVLLITRVLTLFQVDQKPSNYHGPIDKKTLIFRDHLSFIKENLNELFEAVLISSLTSGEFNRLSLDNFGWARKIVRYLPFKLDSPNTIMAMMWEFFLQKYLHNGNAKNDALSLVATEFNTYKSTPNLDEQFVESHRFLLEISKVMQELNAAKLIDENVFKLFTKAVEFTTTALSS
